{"source": "paper PMC4150796", "molecules": {"B1": {"name": "full-length MIZ-1 (FL-MIZ-1) tagged with a Myc epitope (protein, UniProt Q13105 1-803)", "chain": "MDFPQHSQHVLEQLNQQRQLGLLCDCTFVVDGVHFKAHKAVLAACSEYFKMLFVDQKDVVHLDISNAAGLGQVLEFMYTAKLSLSPENVDDVLAVATFLQMQDIITACHALKSLAEPATSPGGNAEALATEGGDKRAKEEKVATSTLSRLEQAGRSTPIGPSRDLKEERGGQAQSAASGAEQTEKADAPREPPPVELKPDPTSGMAAAEAEAALSESSEQEMEVEPARKGEEEQKEQEEQEEEGAGPAEVKEEGSQLENGEAPEENENEESAGTDSGQELGSEARGLRSGTYGDRTESKAYGSVIHKCEDCGKEFTHTGNFKRHIRIHTGEKPFSCRECSKAFSDPAACKAHEKTHSPLKPYGCEECGKSYRLISLLNLHKKRHSGEARYRCEDCGKLFTTSGNLKRHQLVHSGEKPYQCDYCGRSFSDPTSKMRHLETHDTDKEHKCPHCDKKFNQVGNLKAHLKIHIADGPLKCRECGKQFTTSGNLKRHLRIHSGEKPYVCIHCQRQFADPGALQRHVRIHTGEKPCQCVMCGKAFTQASSLIAHVRQHTGEKPYVCERCGKRFVQSSQLANHIRHHDNIRPHKCSVCSKAFVNVGDLSKHIIIHTGEKPYLCDKCGRGFNRVDNLRSHVKTVHQGKAGIKILEPEEGSEVSVVTVDDMVTLATEALAATAVTQLTVVPVGAAVTADETEVLKAEISKAVKQVQEEDPNTHILYACDSCGDKFLDANSLAQHVRIHTAQALVMFQTDADFYQQYGPGGTWPAGQVLQAGELVFRPRDGAEGQPALAETSPTAPECPPPAE"}, "B2": {"name": "endogenous MIZ-1 of lymphoblastoid cell lines (protein, UniProt Q13105 1-803)", "chain": "B1 chain"}, "B3": {"name": "endogenous EBNA3A of a lymphoblastoid cell line (protein, UniProt P12977 1-944)", "chain": "MDKDRPGPPALDDNMEEEVPSTSVVQEQVSAGDWENVLIELSDSSSEKEAEDAHLEPAQKGTKRKRVDHDAGGSAPARPMLPPQPDLPGREAILRRFPLDLRTLLQAIGAAATRIDTRAIDQFFGSQISNTEMYIMYAMAIRQAIRDRRRNPASRRDQAKWRLQTLAAGWPMGYQAYSSWMYSYTDHQTTPTFVHLQATLGCTGGRRCHVTFSAGTFKLPRCTPGDRQWLYVQSSVGNIVQSCNPRYSIFFDYMAIHRSLTKIWEEVLTPDQRVSFMEFLGFLQRTDLSYIKSFVSDALGTTSIQTPWIDDNPSTETAQAWNAGFLRGRAYGIDLLRTEGEHVEGATGETREESEDTESDGDDEDLPCIVSRGGPKVKRPPIFIRRLHRLLLMRAGKRTEQGKEVLEKARGSTYGTPRPPVPKPRPEVPQSDETATSHGSAQVPEPPTIHLAAQGMAYPLHEQHGMAPCPVAQAPPTPLPPVSPGDQLPGVFSDGRVACAPVPAPAGPIVRPWEPSLTQAAGQAFAPVRPQHMPVEPVPVPTVALERPVYPKPVRPAPPKIAMQGPGETSGIRRARERWRPAPWTPNPPRSPSQMSVRDRLARLRAEAQVKQASVEVQPPQLTQVSPQQPMEGPLVPEQQMFPGAPFSQVADVVRAPGVPAMQPQYFDLPLIQPISQGAPVAPLRASMGPVPPVPATQPQYFDIPLTEPINQGASAAHFLPQQPMEGPLVPEQWMFPGAALSQSVRPGVAQSQYFDLPLTQPINHGAPAAHFLHQPPMEGPWVPEQWMFQGAPPSQGTDVVQHQLDALGYTLHGLNHPGVPVSPAVNQYHLSQAAFGLPIDEDESGEGSDTSEPCEALDLSIHGRPCPQAPEWPVQEEGGQDATEVLDLSIHGRPRPRTPEWPVQGEGGQNVTGPETRRVVVSAVVHMCQDDEFPDLQDPPDEA"}, "B4": {"name": "Myc-EBNA3A (protein, UniProt P12977 1-944)", "chain": "B3 chain"}}, "key": {"[1]": {"molecular_target": "T1, endogenous MIZ-1 of lymphoblastoid cell lines (human (endogenous in LCL)) (UniProt Q13105)", "T1 sequence": "B1 chain", "experiment": "oligonucleotide pull-down; data not shown; oligo pull-down as for EBNA3A"}, "[2]": {"molecular_target": "Flag-EBNA3B (Epstein–Barr virus) (UniProt P03203)", "experiment": "co-IP"}, "[3]": {"molecular_target": "Flag-EBNA3C (Epstein–Barr virus) (UniProt P03204)", "experiment": "co-IP"}, "[4]": {"molecular_target": "T2, Flag-EBNA3A (Epstein–Barr virus) (UniProt P12977)", "T2 sequence": "B3 chain", "experiment": "co-IP"}, "[5]": {"molecular_target": "T3, endogenous EBNA3A of a lymphoblastoid cell line (Epstein–Barr virus (endogenous in EBV-infected human LCL)) (UniProt P12977)", "T3 sequence": "B3 chain", "experiment": "co-IP; endogenous proteins from a lymphoblastoid cell line extract; IP with anti-EBNA3A or anti-MIZ-1 polyclonal antibodies, anti-Flag antibody as control; western blot"}, "[6]": {"molecular_target": "T1, endogenous MIZ-1 of lymphoblastoid cell lines (human (endogenous in LCL))", "experiment": "oligonucleotide pull-down; whole LCLwt extract with biotinylated double-stranded oligonucleotide carrying the Inr of the CDKN2B promoter (or a mutated control), streptavidin-agarose beads; HKMG buffer, 16 h at 4°C; western blot"}, "[7]": {"molecular_target": "T1, endogenous MIZ-1 of lymphoblastoid cell lines (human (endogenous in LCL))", "experiment": "co-IP; endogenous proteins from a lymphoblastoid cell line extract; IP with anti-EBNA3A or anti-MIZ-1 polyclonal antibodies, anti-Flag antibody as control; western blot"}, "[8]": {"molecular_target": "Flag-MIZ-1 with the domain between aa 638 and 716 deleted (human) (UniProt Q13105)", "experiment": "co-IP"}, "[9]": {"molecular_target": "T4, Flag-MIZ-1 (full-length) (human) (UniProt Q13105)", "T4 sequence": "B1 chain", "experiment": "co-IP"}, "[10]": {"molecular_target": "Flag-MIZ-1 POZ domain (aa 1–104) (human) (UniProt Q13105)", "experiment": "co-IP"}}, "note": "Results are given in words; binding and its absence hold for the method and conditions named. Binding seen in cells or lysates may run through a third protein. Some entries that bind do so weakly or less than the wild type. For some of these results: Where a sequence is shown, tags or fusion partners need not be part of it.", "data": [{"molecule": "endogenous EBNA3C of a lymphoblastoid cell line (from UniProt P03204 1-992)", "values": [{"measurement": "binding", "setting": "[1]", "value": "binds"}]}, {"molecule": "B1", "values": [{"measurement": "binding", "setting": "[2]", "value": "binds"}, {"measurement": "binding", "setting": "[3]", "value": "binds"}, {"measurement": "binding", "setting": "[4]", "value": "binds"}]}, {"molecule": "B2", "values": [{"measurement": "binding", "setting": "[5]", "value": "binds"}]}, {"molecule": "B3", "values": [{"measurement": "binding", "setting": "[6]", "value": "binds"}, {"measurement": "binding", "setting": "[7]", "value": "binds"}]}, {"molecule": "B4", "values": [{"measurement": "binding", "setting": "[8]", "value": "binds"}, {"measurement": "binding", "setting": "[9]", "value": "binds"}, {"measurement": "binding", "setting": "[10]", "value": "binds"}]}]}
